From the antibiotic and cytotoxicity screens of Wong et al. (2023)
The list shows a part of the results.

What follows are molecules tested on S. aureus RN4220 (assay: growth inhibition call (relative growth <= 0.2)). Conditions: 50 µM.

Growth inhibition call, inactive:
Cc1noc(C)c1S(=O)(=O)N(C)C[C@@H]1OCCCC[C@@H](C)Oc2ccc(NC(=O)Nc3ccc(F)cc3)cc2C(=O)N([C@@H](C)CO)C[C@@H]1C
C[C@H](CO)N1C[C@H](C)[C@H](CN(C)Cc2ccc(Oc3ccccc3)cc2)Oc2ccc(NS(=O)(=O)c3cccs3)cc2C1=O
Cc1ccc(S(=O)(=O)Nc2ccc3c(c2)C(=O)N([C@H](C)CO)C[C@H](C)[C@@H](CN(C)C(=O)Nc2c(C)noc2C)OCCCC[C@H](C)O3)cc1
O=C1NC[C@@H](c2ccccc2)OC(=O)[C@@H](Cc2ccc(F)cc2)CC/C=C/C[C@@H]1CC(=O)N(CCO)Cc1ccccc1
CC(=O)NCCc1ccc(O)c(-c2c(O)c(O)c3c(c2O)C(=O)c2c(cc(O)c(C(=O)O)c2C(=O)O)C3=O)c1
C[C@H](CO)N1C[C@H](C)[C@H](CN(C)S(=O)(=O)c2cn(C)cn2)Oc2ccc(NC(=O)Cc3cn(C)c4ccccc34)cc2C1=O
C[C@@H]1CN([C@@H](C)CO)C(=O)c2cc(N(C)C)ccc2O[C@@H](C)CCCCO[C@@H]1CN(C)S(C)(=O)=O
COc1ccccc1C#Cc1cnc2c(c1)C(=O)N([C@H](C)CO)C[C@@H](C)[C@@H](CN(C)C(=O)CC1CC1)O2
C[C@@H]1CN([C@H](C)CO)C(=O)c2cc(NC(=O)Nc3ccc4c(c3)OCO4)ccc2O[C@H]1CN(C)Cc1ccc(Cl)c(Cl)c1
C[C@H]1CN([C@@H](C)CO)S(=O)(=O)c2ccc(-c3ccccc3F)cc2O[C@@H]1CN(C)S(C)(=O)=O
